# The inconclusive results got no clear call from the source; some entries with a clear call stand among them for comparison. For part of these data: A potency beside an inconclusive call is a rough fit, not a confirmed value. Active and inactive are the calls of the source. Unless noted, the call rests on the fitted dose curve; in most records, active means well fitted curve in the direction sought with a large enough effect; inconclusive means small, poorly fitted or top-dose-only effect, or another doubt; inactive means no such curve, though single readings can be large; an effect the other way counts as inactive or inconclusive.
# What was measured:
# [1] = P-glycoprotein substrates identified in KB-8-5-11 adenocarcinoma cell line, qHTS therapeutic library screen (AID 1346987); further: nearly all actives have a fitted effect of over 65% in size; further: potency means the concentration at half of the fitted maximal effect
# Procedure, shortened: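 KB-8-5-11: colchicine-selected sub-line of KB-3-1 over-expressing P-gp; assay medium lacked colchicine. 72 h drug exposure at 37 degree C, CellTiter-Glo.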
# [2] = Primary qHTS for inhibitors of nuclear receptor binding SET domain protein 2 (NSD2) in an isogenic RCH-ACV NSD2 p.E1099K mutant (9B) (AID 1645876); further: potency means the concentration at half of the fitted maximal effect; nearly all actives have a fitted effect of over 70% in size
# [3] = system: HEK293; assay: Cytotoxic Profiling of Annotated Libraries Using Quantitative High-Throughput Screening (AID 1296008); details: Five cell lines viability, CellTiter-Glo ATP luminescence, 48-72 h; max response: stronger effect = lower value; further: nearly all actives have a fitted effect of over 60% in size; further: potency means the concentration at half of the fitted maximal effect; on max response: on the % scale 0 is the no-effect control and ±100 the full control effect
# Procedure, shortened: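 Cytotoxicity was measured as CellTiter-Glo ATP luminescence, read after 10 min at room temperature. Compound treatment of the cells lasted 48 or 72 hr at 37 degrees Celsius in a qHTS format.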
# [4] = target: Cytochrome P450 2D6 (Homo sapiens) (UniProt P10635); assay: Cytochrome P450 family 2 subfamily D member 6 (CYP2D6) small molecule antagonists: luciferase biochemical (cell-free) qHTS assay (AID 1645840; active means well fitted curve in the direction sought with a large enough effect in the repeat runs; inconclusive means weak or mixed curves; inactive means no such curve, though single readings can be large; an effect the other way counts as inactive or inconclusive; further: nearly all actives have a fitted effect of over 55% in size; further: potency means the concentration at half of the fitted maximal effect; on activity change, negative = inhibition: on the % scale 0 is the no-effect control and ±100 the full control effect)
# Procedure, shortened: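 P450-Glo luminescent screen: recombinant CYP2D6 enzyme–proluciferin substrate mix preincubated with compound 10 min at room temperature, then NADPH regeneration added for 1 h at room temperature. Detection reagent added for 20 min; luciferin light read as relative luminescence units.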
# [5] = Primary qHTS for inhibitors of nuclear receptor binding SET domain protein 2 (NSD2) in an RCH-ACV wild type WT cells (2C) (AID 1645877); details: activity change, negative = cell killing: at 44.9 µM (top of the series) unless noted; further: on the % scale 0 is the no-effect control and ±100 the full control effect; nearly all actives have a fitted effect of over 70% in size
# [6] = target: Phospholipid hydroperoxide glutathione peroxidase GPX4 (Homo sapiens) (UniProt P36969); assay: Primary qHTS Assay for Inhibitors of Recombinant Selenoprotein Glutathione Peroxidase 4 (GPX4) (AID 1845192); further: potency means the concentration at half of the fitted maximal effect; nearly all actives have a fitted effect of over 65% in size
# Procedure, shortened: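 NADPH consumption, followed by fluorescence at 340/450 nm between 0 and 15 min, reports GPX4 activity via coupled glutathione reductase (100 nM). Enzyme 200 nM was pre-exposed to compound 30 min; 0.5 mM cumene hydroperoxide and 1 mM GSH served as substrates.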
# [7] = Primary fluorescence-based thiol-reactive (MSTI) qHTS assay for identification of artifact compounds. (AID 1845221); further: potency means the concentration at half of the fitted maximal effect;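 further: thiol-reactive compounds lower the probe fluorescence signal; nearly all actives have a fitted effect of over 65% in size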
# Procedure, shortened: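 qHTS titration of compound; 4 uM MSTI, PBS pH 7.4, 2% DMSO; 1 h RT, dark; fluorescence 525/598 nm; normalized to Acetyl-MSTI and MSTI; 4-parameter Hill fit.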
# [8] = system: Tov112D; assay: Primary qHTS to identify gynecologic anti-cancer compounds using libraries of approved drugs and bioactive compounds (AID 1345084); details: Gynecologic cancer cell panel viability, ATPlite luminescence, 48 h; series mostly up to 57.5 µM; further: on the % scale 0 is the no-effect control and ±100 the full control effect; nearly all actives have a fitted effect of over 55% in size
# Procedure, shortened: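 Cells, 1,000 per well, were allowed to settle for 16 h at 37 C before compound addition. Five concentrations were tested for 48 h, and viability was read by ATPlite luminescence after 15 min at room temperature.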
# [9] = system: Zika virus NS2B-NS3 protease (unlinked complex); assay: Primary screen GU Rhodamine qHTS for Zika virus inhibitors: Unlinked NS2B-NS3 protease assay (AID 1347159); further: potency means the concentration at half of the fitted maximal effect; nearly all actives have a fitted effect of over 60% in size
# Procedure, shortened: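 Noncovalent NS2B hydrophilic domain/NS3 protease complex (25 nM final) in 10 mM Tris-HCl pH 8.0, 0.01% Tween 20, preincubated 15 min with compounds (up to 114 microM), then 1.5 microM Rhodamine110 substrate. Fluorescence change over 15 min fitted to 4-parameter Hill.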
# [10] = system: Zika virus NS2B-NS3 protease (linked construct); assay: Primary screen NINDS Rhodamine qHTS for Zika virus inhibitors (AID 1347160); details: activity change, negative = inhibition: at 57.1 µM (top of the series) unless noted; further: potency means the concentration at half of the fitted maximal effect; nearly all actives have a fitted effect of over 55% in size
# Procedure, shortened: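 Purified NS2B-NS3 protease with the NS2B hydrophilic domain joined by a flexible linker (25 nM) in 10 mM Tris-HCl pH 8.0, 0.01% Tween 20, preincubated 15 min at RT with compound; Rhodamine110 peptide substrate 1.5 µM; fluorescence change over 15 min; 4-parameter Hill fit.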
# Tags describe the fitted curve by direction and shape.
# Sequence of UniProt P10635 (P10635 whole entry, looked up): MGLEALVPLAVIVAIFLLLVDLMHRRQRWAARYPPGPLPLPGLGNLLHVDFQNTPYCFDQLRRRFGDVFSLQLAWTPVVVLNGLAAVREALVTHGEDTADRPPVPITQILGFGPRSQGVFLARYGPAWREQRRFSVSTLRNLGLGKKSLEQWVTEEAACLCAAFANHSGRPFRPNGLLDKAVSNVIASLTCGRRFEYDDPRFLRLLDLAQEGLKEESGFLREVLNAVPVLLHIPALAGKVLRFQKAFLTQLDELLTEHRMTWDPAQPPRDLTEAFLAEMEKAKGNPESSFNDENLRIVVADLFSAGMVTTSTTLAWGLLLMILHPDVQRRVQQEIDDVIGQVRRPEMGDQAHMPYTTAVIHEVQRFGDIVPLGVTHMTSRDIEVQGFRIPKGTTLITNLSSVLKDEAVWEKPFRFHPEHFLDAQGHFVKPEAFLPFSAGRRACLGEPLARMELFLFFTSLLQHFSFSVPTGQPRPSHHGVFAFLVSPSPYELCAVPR
# Sequence of UniProt P36969 (P36969 whole entry, looked up): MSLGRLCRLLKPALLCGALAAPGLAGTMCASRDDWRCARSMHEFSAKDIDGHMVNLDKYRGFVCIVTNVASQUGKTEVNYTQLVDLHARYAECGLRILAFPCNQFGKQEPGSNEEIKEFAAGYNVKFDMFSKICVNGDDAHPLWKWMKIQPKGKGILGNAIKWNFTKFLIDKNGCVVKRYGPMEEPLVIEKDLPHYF
smiles,measurement,setting,value
O=C(NCCCc1ccccc1)C1CCC(CNS(=O)(=O)c2cccc3nsnc23)CC1 (centres undefined),Potency,[1],"inconclusive: 5.17 µM [inhibitor, full curve]"
same,Potency,[2],"inconclusive: 20.5 µM [inhibitor, partial curve]"
same,Potency,[3],"inconclusive: 20.6 µM [inhibitor, single point]"
Clc1ccc(CN[C@H]2CCN(c3ncc(Br)cn3)C2)c(Cl)c1,Potency,[1],"inconclusive: 32.6 µM [inhibitor, partial curve, poor fit]"
same,Potency,[4],active: 0.674 µM
same,Potency,[2],"inconclusive: 18.3 µM [inhibitor, partial curve, poor fit]"
same,Potency,[5],inactive
same,outcome,[3],inactive
N#CCC(C1CCCC1)n1cc(-c2ncnc3[nH]ccc23)cn1 (centres undefined),Potency,[1],"inconclusive: 23.1 µM [inhibitor, single point]"
same,Potency,[4],inactive
same,Potency,[6],active: 18 µM
same,Potency,[7],inactive
same,Potency,[3],"inconclusive: 29.1 µM [inhibitor, single point]"
same,Potency,[8],inactive
C=C1CCC2C(C)(C(=O)OC)CCCC2(C)C1CCC(C)CC(=O)O (centres undefined),Potency,[9],"inconclusive: 12.6 µM [inhibitor, full curve]"
same,Potency,[10],"inconclusive: 12.6 µM [inhibitor, single point]"
same,Potency,[5],inactive
same,max response,[3],inactive: -9.98%
same,Potency,[8],inactive
CC(C)(C)c1ccc(S(=O)(=O)Nc2ccc(Cl)cc2C(=O)c2cc[n+]([O-])cc2)cc1,Potency,[1],inactive
same,Potency,[9],"inconclusive: 12.6 µM [inhibitor, partial curve, poor fit]"
same,Potency,[10],"inconclusive: 17.8 µM [inhibitor, partial curve]"
same,Potency,[7],"inconclusive: 0.67 µM [inhibitor, full curve, poor fit]"
same,max response,[3],inactive: -2.23%
